Test results reported in the supplement of paper PMC5499739.
Whole data set: some 16,000 sequences, median “Z-score” near -0.37, cut for the highest 2% near 3.1. The list shows a part of the results.

What follows are sequences tested on RBM10 RRM1-ZnF-RRM2 (GST-tagged construct) (assay: RNAcompete 7-mer binding Z-score; higher = stronger binding preference).
In short: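 In 1 ml Hepes pH 7.8 buffer with KCl, NaCl, glycerol, DTT, BSA and glutathione Sepharose beads, GST-tagged RBM10 constructs (20 pmol) were incubated for 30 min at 4°C with 1.5 nmol of a designed pool of 241 399 RNAs up to 41 nt. Four 2-min washes at 4°C followed, and bound RNA was detected by microarray hybridisation. Heptamer motif enrichment was expressed as a one-sided Z-score across probes containing each motif.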

Sequence	RNAcompete 7-mer binding Z-score
CUCGAAG	-0.318
CGAUGCG	0.385
UCGUUAU	-0.781
AAUCUAU	-0.595
UGUGUUG	-0.0343
UGGAAUC	0.57
UUACGGC	-0.3
GCCCAAA	-0.85
ACUUGAG	-0.541
UCUAGGG	0.92
GCGGGCC	0.25
GCGUCCA	-0.406
UUGUUAC	-0.493
CGUAAAA	-0.187
AUUGCCG	-0.555
CCAGAGU	0.00944
AUUAUAA	-0.391
GAGCCCU	-0.825
UCGAUUU	-0.646
AUCGCCC	-0.901
UAGAGUG	0.971
GACGGUC	-0.249
AGACUGC	-0.934

Sequence	RNAcompete 7-mer binding Z-score
UGAUUAG	-0.0306
CUCUUUU	-0.788
AGACACG	-0.362
AUUACAC	-0.537
UACACGG	0.21
GAUGAAC	0.385
AACAUCC	-0.541
UUCACAA	-0.581
GUUGAGU	0.57
CCGCAUA	-0.817
GAACUCG	-0.497
CGCUAGG	0.468
UGGCACA	0.497
GCUUUUC	-0.763
ACCGAUU	-0.53
UAUAUGC	-0.439
UGUUUUG	-0.391
AUUCUCA	-0.675
CUUGCCA	-0.843
UUCAAAU	-0.595
CCAAUGU	-0.3
UUAACAU	-0.635
GCACGAG	0.632

Sequence	RNAcompete 7-mer binding Z-score
AAAGAGU	0.49
GCUCAGA	-0.202
AGAUUAU	-0.147
CGGUACA	0.552
GAAAAGA	0.654
UUUACUA	-0.781
GUCCGCG	-0.18
GACGGGC	1.28
CCCACGG	-0.275
CGAGUGU	0.264
UACUGCG	-0.402
UACAGCA	-0.0743
AUACUUC	-0.908
UGAGAAC	0.0349
GAUCUAU	-0.577
CUUCGGA	-0.613
AGUCAUA	-0.347
AGCAAAU	-0.347
AAGCGUC	-0.326
GCCGGCC	-0.653
AGAUAGU	0.104
AUAACGC	-0.624
UCGCCCG	-0.792

Sequence	RNAcompete 7-mer binding Z-score
AGCCUCU	-0.817
AAAAAGU	0.0532
AAUUUUU	-0.781
GUCCCAG	-0.493
CCUCUGU	-0.679
UUCAGAA	-0.42
UUAUCCA	-0.581
GCUCAAG	-0.428
AUGAACC	-0.344
CCACUUU	-0.817
GUUUUCG	-0.107
UAUCGUC	-0.606
UGAAUCG	0.221
GUCGUUA	-0.125
GGGGCUA	1.81
GGUGGGU	3.47
CGGUCCU	-0.57
UCUCUCC	-0.806
CAGGACG	1.32
GCAUGAC	-0.373
CCGAUCU	-0.938
CCGCUGU	-0.679
CGCCUAG	-0.635

Sequence	RNAcompete 7-mer binding Z-score
GCUCCAA	-0.511
CAUUCCU	-0.846
GCCGCUA	-0.734
AUACUCA	-0.697
GGAUUGA	1.79
AGGUCGC	0.0167
GGCCGGC	-0.202
CUCCAAU	-0.606
GCGAAAA	0.297
GCGGGUG	2.75
CAAGUCC	-0.639
GACCGCC	-0.876
AUGUGUC	-0.133
GAGCAUA	0.283
AAACACA	-0.0707
UAGCAGU	-0.162
UCGUCCC	-0.704
GCACUAC	-0.384
GUGCCCG	-0.249
GCCUGUG	-0.541
AUUUGUA	-0.577
UCUCGGA	-0.329
UGAGGAC	0.862

Sequence	RNAcompete 7-mer binding Z-score
UGCGUUA	-0.267
GCUAUUU	-0.781
CAACAAC	-0.486
AACCAAA	-0.26
CUCAGUA	-0.672
UGUUGAG	0.512
GCCCACG	-0.577
GCUACAC	-0.129
CAAUUAA	-0.577
AAUACCC	-0.632
GAUUUCG	-0.355
GUGUGAC	0.465
AAUUUUC	-0.788
CGUGGCC	-0.162
ACCCUAG	-0.785
GCUCGAC	-0.53
CGGACGA	0.487
UUGGUAA	0.505
CCAAGAC	-0.686
AUGAACG	0.33
CGCACGU	-0.402
UCCGACA	-0.719
GCUAAAC	-0.34

Sequence	RNAcompete 7-mer binding Z-score
GAUAGAU	0.432
UUUGUGA	-0.304
UGGGCGC	0.989
ACUAGUU	-0.391
CUCACGC	-0.755
CUGUAUA	-0.632
GAUGUUG	0.436
GACAUCG	-0.38
AUCAUCC	-0.675
UCAGUCC	-0.686
AGAACAC	-0.493
UUGGAUA	0.658
GUGAGAU	0.811
CGAUCUC	-0.821
CCGGGAC	0.173
CUGCAAC	-0.752
GAGGCGG	2.59
AGGCUAC	-0.289
CCGACAU	-0.763
CAGGGGC	1.52
UUGUGGA	0.825
CGUGCUA	-0.555
CCGCCAC	-0.643

Sequence	RNAcompete 7-mer binding Z-score
CAGUGCC	-0.235
GGCGCGU	0.476
UCGAAAA	-0.355
GUCUUAU	-0.785
UGCAAUG	0.119
UAUCUGU	-0.763
AUAGCCU	-0.704
UCCCUUA	-0.843
CACUAUG	-0.391
CUGACGU	-0.53
AGACAAU	-0.275
AGGAUCA	0.559
AAGAUUG	0.0932
AAUCGGG	2.26
GGUUUAC	0.396
GUAUUAU	-0.118
GUAGGGU	4.48
CUUCAGC	-0.861
CGCAUCG	-0.424
ACGGAAA	1.24
AUACACC	-0.774
GGUUGCA	0.876
AUCGUGG	1.14
